Measurements taken from the supplement of paper PMC11417369.
± gives the standard deviation of the averaged measurements. The list shows a part of the results.

These sequences were tested on PfAP2-EXP AP2 domain (GST-tagged) (assay: gcPBM binding intensity (ln(normalized median fluorescence intensity)); higher = stronger DNA binding).
In short: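 Binding intensity is defined as the maximum Masliner-normalised natural-log median intensity across replicate spots for either probe orientation. It was measured on an Agilent 4 × 180k array of primer-extended double-stranded 36-bp intergenic genomic probes and negative controls, to which GST-tagged P. falciparum DNA-binding domains made in E. coli were applied for 1 h in 1× PBS with 1% milk, 0.2 mg/ml BSA, 0.5% salmon testes DNA and 0.03% Triton X-100. Detection was by Alexa488 anti-GST antibody and scanning at 488 nm.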

Row | Sequence | gcPBM binding intensity (ln)
1 | ATTATAAATATCAGTGCACACATTTCTACGCAAAGT [CACACA_site4420] | 8.84 ± 0.042
2 | AAGGAGCCTATGAACACACACATGTACAGATATTAA [CACACA_site6107] | 8.62 ± 0.45
3 | TGTATTTATAGACACACACACTTTCTTTTTTTAAGA [CACACA_site7010] | 8.51 ± 0.39
4 | AACAATTAGAACTTTGCACACTTCTATATATTTTGT [CACACA_site674] | 8.87 ± 0.33
5 | TGTATAATAAGGAAGAGTACAAGTAAATACACACAT [XGTACX_site2084] | 9.14 ± 0.39
6 | TACATATATAAAAAAACACACACATATATATATATA [CACACA_site8315] | 10.1 ± 0.46
7 | TTGTATTAATAATTTTTTATATTATAGTTTATAATA [GTGCAC_negctrl_site130] | 8.19 ± 0.3
8 | ATCGGTATATTATTACATGAATAAACTTACACACAC [TGCATGCA_negctrl_site21] | 9.03 ± 0.21
9 | TATATATATAACATTGTACACACAAAGAAATAATAT [CACACA_site8998] | 9.04 ± 0.11
10 | TATATATAAAATGTATGTACATATTTATTTATATAG [XGTACX_site657] | 8.22 ± 0.36
11 | AAGTGAAATAAAATATGTACATATATGTATATATAA [XGTACX_site4473] | 8.67 ± 0.23
12 | AAAAAAAAAGAATGTGAACACACACCGTGAATATAA [CACACA_site8342] | 8.53 ± 0.59
13 | TTTTTTCTTCGTGTATTAAGTCACAATAGGAAAAAA [GTGCAC_negctrl_site644] | 8.48 ± 0.25
14 | TTTGCAACATATAAAAGTACAAATAATATATTTATT [XGTACX_site890] | 8.41 ± 0.43
15 | TTTATTATATGCACACGTACATATAATATATATATA [XGTACX_site4108] | 9.39 ± 0.042
16 | AGCAGTTTTTTTTTTTTTTTTTTTTTTATTAAAAGC [XGTACX_negctrl_site392] | 7.96 ± 0.34
17 | TACTTATTTTTATAGCATTTCACGGAGGTAGTAATA [CACACA_negctrl_site468] | 8.6 ± 0.47
18 | ATAATAAATCATCATATTACATTTATCTTTGTTGGA [CACACA_negctrl_site849] | 8.46 ± 0.16
19 | AACTGTAATTTTATACGTACATAAATAATATTATAT [XGTACX_site4277] | 8.55 ± 0.31
20 | AAAAAAAAAGAAAAACGTACGTTTATTTAATATATA [XGTACX_site4018] | 8.35 ± 0.49
21 | TTATATAACTTTTCTAGTACTTGTATAAATTCCTAC [XGTACX_site3685] | 8.67 ± 0.37
22 | AACATAATATCATATACACACAAAAATATTGAAATA [CACACA_site2160] | 8.62 ± 0.33

Row | Sequence | gcPBM binding intensity (ln)
23 | ATAATACCCATTATCTTACAACAAAATGCAAACAAA [CACACA_negctrl_site1037] | 8.57 ± 0.49
24 | AAAATTAGATTATGCACACACACTTAAAAATAATAA [CACACA_site1975] | 8.56 ± 0.28
25 | AAGAACATATTATATACATGCATAATTCGATAGATT [TGCATGCA_site882] | 8.84 ± 0.23
26 | TAATTATAATAATAACGTACATATATAAAATGGTGA [XGTACX_site8434] | 8.82 ± 0.4
27 | TTAAAATATGTAGCTACACACACATAAACAAAATAA [CACACA_site8244] | 8.66 ± 0.44
28 | TTTTTTTTTCTGAATTTATAATTCAAAAATATATAT [CACACA_negctrl_site300] | 8.17 ± 0.38
29 | TGTAGTCTGGAGAAAAGTACACAGTATCTGGTAGCT [XGTACX_site2012] | 8.47 ± 0.33
30 | TATATATATATATAGGTGCTATAATTTATATACACA | 10.1 ± 0.31
31 | TTTTATTTTTTCTATACATGCATGTCCAATTTTCTT [TGCATGCA_site304] | 9.85 ± 0.68
32 | TTATGGTATAAAAAAATACACACTTATATATATTCT [CACACA_site488] | 8.23 ± 0.4
33 | AAAAAAAAAAAAAACACACATACACGCCCACCCATA [CACACA_site3391] | 9.19 ± 0.6
34 | GTTTTTTTATAAAATTTTTATATAATTCTTTTATAA [CACACA_negctrl_site1605] | 8.46 ± 0.36
35 | ATATATAAGAACATATATATTGGAAATATTGAATTT [XGTACX_negctrl_site121] | 8.2 ± 0.54
36 | TAATAATAAAAAATACGTACATATTATTTATATATG [XGTACX_site853] | 8.44 ± 0.17
37 | CATTTTATTCTATATGCATGTTAAAAAATGTGTTGA [TGCATGCA_site128] | 8.6 ± 0.26
38 | AATAAAAATATTATATGTACATATTTTAATATATAT [XGTACX_site1259] | 8.35 ± 0.24
39 | AAAAAAAAAAAGATAAATACAAGTTACACAAAAAAA [GTGCAC_negctrl_site664] | 8.37 ± 0.61
40 | ACGTTGCGACGCAAGGTGCTTATTTTCTTATAAATA | 8.23 ± 0.23
41 | AACAAATTTTTTATTAAACACACAAACATATATATA [CACACA_site8588] | 8.62 ± 0.29
42 | TGTGAATATATCTTTAAAAAGGATAAATAATAATTT [CACACA_negctrl_site507] | 8.21 ± 0.36
43 | GCTCATTGAAATTATACACACCAAATATATAAATAT [CACACA_site5385] | 8.49 ± 0.3
44 | TATGAATATTGCATGTGTACCTATTATCCTTTTAAA [XGTACX_site4311] | 9.11 ± 0.37
